Measurements: the supplement of paper PMC11417369
The other results are listed elsewhere or left out.

system: PF3D7_0420300 AP2 domain 1 (GST-tagged); assay: gcPBM binding intensity (ln(normalized median fluorescence intensity)); higher = stronger DNA binding
How it was run: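 Using an Agilent 4 × 180k array, primer-extended double-stranded 36-bp intergenic genomic probes and negative controls were exposed for 1 h to GST-fused P. falciparum DNA-binding domains expressed in E. coli. Binding was carried out in 1× PBS with 1% milk, 0.2 mg/ml BSA, 0.5% salmon testes DNA and 0.03% Triton X-100, and protein was detected with Alexa488 anti-GST antibody and a 488 nm scan. Binding intensity is the highest Masliner-normalised natural-log median intensity across replicate spots of either probe orientation.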

Row | Sequence | gcPBM binding intensity (ln)
1 | TACATATTTATATACACACACACCGTCCGTGTTAAA [CACACA_site7413] | 9.92
2 | CTAAAAATCTTTTGTTGTACTTTTAGATAATCAGGA [XGTACX_site3968] | 8.77
3 | AAGTAAAAAAATAGCACACACACAAAAACACAGACA [CACACA_site4839] | 10.2
4 | AAAGGGATGTTCATTCTTTTTTTTTTTTTTGTATAT [CACACA_negctrl_site511] | 9.28
5 | TATATTTTTTTTGTGCGTACATACCATTTTAATAAT [XGTACX_site2751] | 9.27
6 | CACAAACAAAAACACACACACACACCCACAAAAATG [CACACA_site2429] | 10.1
7 | AATTATTGTATGCTATACGTTCCCCTCTAATTTATC [CACACA_negctrl_site1052] | 9.46
8 | TATTATTTTATGAATACACACATATACGAAAATATT [CACACA_site964] | 9.45
9 | ATTGGGTACAAATACACACACATATAAATATTAATA [CACACA_site7173] | 9.81
10 | TATTTTTATATAATGTGTACTTATACCTTATTTTTT [XGTACX_site1658] | 9.3
11 | GAATGAAAATAAAATTGTACACATATCTATATCTAT [XGTACX_site2642] | 9.23
12 | TATATTATATGTATTGCACACCTTCAACAACTACTT [CACACA_site8121] | 9.49
13 | AAAAAAAAAAAAAGTTGTACATTATTTTCCTAATTC [XGTACX_site7998] | 9.03
14 | TTTAATTAGGATAATTGTACTGAACTAAGTATATTT [XGTACX_site1871] | 9.03
15 | ATACATATATATGTGTGTACATATGTGTATACATTT [XGTACX_site6544] | 9.49
16 | ATATGTATTAAGTGTACACATATAATGGGTTTGTTA [CACACA_site5682] | 9.34
17 | TTTTATAAATCTAAACGTATCTAAATGAATAATTAA [GTGCAC_negctrl_site44] | 8.84
18 | ATTTTCACCTGAACGGTGCATATTTAATTTTAGGTT | 9.49
19 | ATATATGTACAAATTGTGCGCAATAATTTTGTCTTT | 9.28
20 | ATAGAAACATATTGACGTACAGTATAATAATACAGT [XGTACX_site197] | 9.51

Row | Sequence | gcPBM binding intensity (ln)
21 | AAATCAACTTATTTTTGTACATATATTTATTATATA [XGTACX_site2925] | 9.48
22 | ATATATTATAGAGGTGTGCACTACATACATTATAAT [GTGCAC_site9991] | 9.54
23 | GAAAAATTAATAAATAAACACACATATATATATATA [CACACA_site8835] | 9.38
24 | TCTTTATGTAAGGTCTTCCACAAAAAAATTAAAAAA [TGCATGCA_negctrl_site229] | 8.59
25 | AGGAAAATAGAAAAAGCACACATATATTTTGGAATG [CACACA_site8080] | 9.66
26 | ACTTCATTTTTTTTATGTACACAGAAGATTTACAAA [XGTACX_site4021] | 9.15
27 | AAAATAATAATTAATACATGCATTAATTCTTTTTTT [TGCATGCA_site741] | 9.07
28 | ACATATGTATGAATATCAAAAAATCCCTATTTAATG [GTGCAC_negctrl_site27] | 9.07
29 | TATATACATATATATACACACATATATATATTTTAT [CACACA_site3788] | 9.52
30 | CATATATTATTTAATAGTACATATAAAAGAAAAAAA [XGTACX_site4643] | 9.25
31 | TATATAAATAAATGTGTACACACATTAAAATCAAAC [CACACA_site8733] | 9.69
32 | ATTTATTTATTTTTTTGTACGAATGTTGCACATATA [XGTACX_site4101] | 9.17
33 | GAAATAATTGTTAAAGGTACACAATGCATATACAAT [XGTACX_site238] | 9.37
34 | ATAATATATACTAAAAGTACATATTATAATAAATTA [XGTACX_site6749] | 9.06
35 | ATAAAATAAATAAATATAAATATATATATATATATA [TGCATGCA_negctrl_site358] | 9.1
36 | CACTCTTAAAATAAGGTGCACTATATAACGTGATTA [GTGCAC_site9422] | 9.06
37 | TATACATATTTACAAGTGCATAATATTTTACAAAAA | 9.06
38 | GTTATAACTCAAATATGTACATATTATAAAACATAT [XGTACX_site6693] | 9.18
39 | TTATAGAACTATATTGCACACATAATATATATATAT [CACACA_site9042] | 9.44
40 | TATAAAAATAAGCACACACACAAATATATATTTATT [CACACA_site922] | 10.1

Row | Sequence | gcPBM binding intensity (ln)
41 | AAAAAAAAAAAAAAAGGTACACAAATACGTCCTGCA [XGTACX_site3354] | 9.3
42 | AATTATCAAAGTCTATACATACATACATACATACAT [GTGCAC_negctrl_site243] | 9.33
43 | TAATTATAATAAAAAGGTACAGAAAAGTTATACTCA [XGTACX_site6111] | 9.29
44 | GTCAACTTGTGATAAGTGCATATATATAATAAAATG | 9.2
45 | AAAAAAATATAATATTTGAATAAATATAATAATATG [XGTACX_negctrl_site477] | 9
46 | CGAAATAAATCTTATGCACACAAATAATTAATTAAA [CACACA_site8491] | 9.33
47 | AATATATAGGTATTTACACACAATGTGAGATCTATA [CACACA_site3407] | 9.52
48 | ATTTATGAAAAGTAAAGTACACACAGGAAAAAAAAA [XGTACX_site3564] | 9.79
49 | TAAGAAAAAGGCACACGTACATAATTCAAAATAAAT [XGTACX_site982] | 9.77
50 | ATATATATGTATGTATGTACTTATTTATTTATTTAT [XGTACX_site7740] | 9.33
51 | CCAATGAGGATATATACACACATACATTAAAAAAAT [CACACA_site5090] | 9.69
52 | TTTTTTTTCACACATTGTACTTTTTTATAAAATATA [XGTACX_site4351] | 9.34
53 | ATTTAAATAATATGTACACACATTTAAAAAATTATA [CACACA_site2816] | 9.2
54 | AACCTTACACAAGGGGTGCAATATTATTTCGATAAA [GTGCAC_site9600] | 9
55 | TGCTCCTATTATATAGTGCATTTATTTTAATAAACG | 9.04
56 | TAATTTATAAAAAATTGTACATTAAACATATATATA [XGTACX_site5164] | 9.09
57 | TCTTTTCGTTCATGCTGTACTTAATTGCTCTAATTT [XGTACX_site4816] | 9.46
58 | CCCTGCCTCTCTTTGGTGCGTTGTAACCCTCGAGGA | 9.12
